# Structures can show the parent of a compound that is named as a salt. ± gives the standard deviation of the averaged measurements. About 15 (2%) of roughly 1,000 compounds showed an effect of 50% or more. The list shows a part of the results.
# Tested on: HFF
# Experiment: uninfected host cell viability relative to vehicle control; higher = less host cell toxicity
# Details: 5 µM; 72 h; oxygen 21 %
# 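Note: confluent HFF monolayers, run in parallel with the Toxoplasma growth screen as a host toxicity counterscreen.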
row,SMILES,uninfected host cell viability [%]
1,CC#CCOC(=O)C1=CCCN(C)C1 [Arecaidine but-2-ynyl ester tosylate],88 ± 1.3
2,O=C(O)C1=CCCNC1 [Guvacine hydrochloride],89.4 ± 1.3
3,CCOCC(O)COc1ccc(NC(=O)CC[S+](C)C)cc1 (stereo unspecified) [Suplatast tosylate],97.7 ± 1.6
4,COc1cc(/C=C(\C#N)C(N)=O)cc(CSc2nc3ccccc3s2)c1O,81.5 ± 3.5
5,COc1ccc(C2CC(c3c(O)cc(C)oc3=O)=NCCS2)c(OC)c1 (stereo unspecified),80.95 ± 0.11
6,c1cc2c(cc1C1CCCCC1)c1c3n2CCNC3CCC1 (stereo unspecified) [Tetrindole mesylate],90.7 ± 7.5
7,CCN1CCC[C@H]1CNC(=O)c1c(OC)ccc(Br)c1OC [Remoxipride hydrochloride],87.6 ± 4.9
8,CN(C)c1ccc(/C=C2/C(=O)Nc3ccccc32)cc1,80.41 ± 0.13
9,N=C(N)S/C=C\C(=O)O [ZAPA sulphate],99.7 ± 2.3
10,"c1ccc(CN2CCC3(CCc4ccccc43)CC2)cc1 [L-693,403 maleate]",96.5 ± 4.2
11,C[C@@H]1C[C@H]2[C@@H]3CCC4=CC(=O)C=C[C@]4(C)[C@@]3(F)[C@@H](O)C[C@]2(C)[C@@]1(O)C(=O)CO [Dexamethasone],83.89 ± 0.36
12,N=C(N)SCCc1c[nH]cn1 [Imetit dihydrobromide],88.6 ± 1.5
13,O=C(O)CCCc1ccccc1 [sodium 4-Phenylbutyrate],100 ± 2.5
14,CC(C)NCC(O)COc1ccc(CC(N)=O)cc1 (racemic) [(RS)-Atenolol],91.7 ± 6
15,O=C1c2ccccc2C(Cc2ccnc(F)c2)(Cc2ccnc(F)c2)c2ccccc21,90.8 ± 1.9
16,COCCOC(=O)C1=C(C)NC(C)=C(C(=O)OC/C=C/c2ccccc2)C1c1cccc([N+](=O)[O-])c1 (stereo unspecified) [Cilnidipine],85.8 ± 2.8
17,CCCCN1CCC(CCC(=O)c2cc(Cl)c(N)cc2OC)CC1,85.2 ± 6.5
18,O=C(O)/C=C/c1ccc(Cn2ccnc2)cc1 [Ozagrel hydrochloride],89.9 ± 5.5
19,Cc1cc(/C(=C/Nc2ccc(Cl)cc2)C(=O)Nc2ccc(Cl)cc2)on1,86.9 ± 4.8

row,SMILES,uninfected host cell viability [%]
1,CC1=Nc2ccc(Cl)cc2S(=O)(=O)N1 [Diazoxide],88.9 ± 0.94
2,COC(=O)C1=C(C)NC(C)=C(C(=O)OCCCN2CCC(c3ccccc3)(c3ccccc3)CC2)[C@H]1c1cccc([N+](=O)[O-])c1 [(S)-(+)-Niguldipine hydrochloride],76.95 ± 0.17
3,O=C(NCCO[N+](=O)[O-])c1cccnc1 [Nicorandil],85.5 ± 2.7
4,C=C1/C(=C\C=C2/CCC[C@]3(C)[C@@H]([C@H](C)/C=C/[C@@H](O)C4CC4)CC[C@@H]23)C[C@@H](O)C[C@@H]1O [Calcipotriol],83.9 ± 3.1
5,Cc1scc2c1N(C(=O)CN1CCN(C)CC1)c1ccccc1NC2=O [Telenzepine dihydrochloride],90.6 ± 2.6
6,CCSC(=N)N [EIT hydrobromide],83.6 ± 3.5
7,COc1ccc(CN(CCN(C)C)c2ccccn2)cc1 [Mepyramine maleate],89.3 ± 3
8,CNC(=O)c1cc2c(cn1)[nH]c1ccccc12,82.7 ± 2.8
9,CSc1nc(NC2CCCC2)c([N+](=O)[O-])c(NC2CCCC2)n1,100.8 ± 0.12
10,CCOC(=O)c1ccc(OC(=O)CCCCCNC(=N)N)cc1 [Gabexate mesylate],89.8 ± 11
11,CCOC(=O)[C@H](CCc1ccccc1)N[C@H]1CCc2ccccc2N(CC(=O)O)C1=O [Benazepril hydrochloride],88.7 ± 3.2
12,COc1cccc(NC(=O)/C=C/c2ccc(Cl)cc2)c1,79.5 ± 2.4
13,CC(C)(C)NC[C@H](O)COc1nsnc1N1CCOCC1 [(S)-Timolol maleate],84.73 ± 0.69
14,COc1ccc(NC(=O)c2ccc(-c3ccc(-c4noc(C)n4)cc3C)cc2)cc1OCCN(C)C,36.9 ± 27
15,Nc1nc(Cl)nc2c1ncn2[C@@H]1O[C@H](CO)[C@@H](O)[C@@H]1F [Clofarabine],87 ± 3.5
16,Cc1cc(C)c(N(Cc2ccccc2)S(=O)(=O)c2ccc(OCCNC(=O)c3cc4ccccc4o3)cc2)c(C(=O)NO)c1,51.2 ± 3.1
17,Nc1nc(F)nc2c1ncn2[C@@H]1O[C@H](CO)[C@@H](O)[C@@H]1O [Fludarabine],87.5 ± 2
18,OC(c1ccccc1)C1CCN(CCc2ccccc2)CC1 (stereo unspecified),101 ± 7.3
19,COc1ccc(NC(=O)c2cc(OCCCN(C)C)nn2Cc2ccccc2)cc1 [CFM 1571 hydrochloride],81.7 ± 2

row,SMILES,uninfected host cell viability [%]
1,O=c1ncccn1[C@@H]1O[C@H](CO)[C@@H](O)[C@H]1O [Zebularine],90.802 ± 0.032
2,N#Cc1ccccc1OCC(O)CNCCNC(=O)Nc1ccccc1 (stereo unspecified),86.9 ± 1.3
3,C[C@H](NC(=O)c1sccc1OCc1ccc(Cl)cc1)c1ccccc1,115 ± 1.5
4,O=c1cc(-c2ccc(O)cc2)oc2cc(O)cc(O)c12 [Apigenin],94.8 ± 1.1
5,CCc1cc(C(C)=O)c(O)cc1OCCCCCC(C)(C)c1nn[nH]n1,91.1 ± 4.2
6,C[C@@H](N)[C@H]1CC[C@H](C(=O)Nc2ccncc2)CC1,98.7 ± 2.2
7,Cc1cc(C)cc(C(=O)N(C)[C@H](Cc2ccc(-c3ccccc3)cc2)C(=O)N[C@@H](Cc2c[nH]c3ccccc23)C(=O)O)c1,83.95 ± 0.62
8,Cc1cccc(/C=C/c2ccccc2)n1,96.29 ± 0.92
9,CCCCCCCC/C=C\CCCCCCCC(=O)N[C@@H](CO)Cc1ccc(O)cc1,84.5 ± 2.3
10,Cc1nc2c(c(=O)[nH]1)CSCC2,110 ± 25
11,CCCC[C@@H](C=O)NC(=O)[C@H](CC(C)C)NC(=O)OCc1ccccc1 [Calpeptin],94.8 ± 1.4
12,COc1nc(C)nc(Cl)c1NC1=NCCN1 [Moxonidine hydrochloride],89.6 ± 1.9
13,COc1cc2nc(N3CCN(C(=O)c4ccco4)CC3)nc(N)c2cc1OC [Prazosin hydrochloride],88.7 ± 3.1
14,Cc1cc(Cn2cnc3c2CC(C(=O)O)N(C(=O)C(c2ccccc2)c2ccccc2)C3)ccc1N(C)C (stereo unspecified),82.1 ± 3.1
15,CCN(CC)CCOc1ccc(Cc2ccccc2)cc1 [DPPE fumarate],86.65 ± 0.8
16,CC(=O)N[C@@H](CC(=O)N[C@@H](CCC(=O)O)C(=O)O)C(=O)O [Spaglumic acid],90.29 ± 0.078
17,c1ccc(C(NCCNC(c2ccccc2)c2ccccc2)c2ccccc2)cc1 [AMN 082 dihydrochloride],89.1 ± 2.2
18,Cc1c(C(=O)N(C)C2CCCCC2)sc2nc3ccc(N)cc3n12,83.6 ± 2.2

# Reference: the supplement of paper PMC4894684
